Here are results for 87 compounds from ChEMBL document CHEMBL4888484, “Replenishing the malaria drug discovery pipeline: Screening and hit evaluation of the MMV Hit Generation Library 1 (HGL1) against asexual blood stage Plasmodium falciparum ,using a nano luciferase reporter read-out” (2022).

The structures appear in SMILES notation. Screen size: about 150,000 compounds; about 540 (0.36%) showed an effect of 50% or more. Some of the results follow.

For the test, the system named is Plasmodium falciparum. Description: Primary screen in NF54 nanoGlo assay, in single point, at 2uM, 72h; a lower Z score goes with more inhibition. Format: functional, Erythrocyte. To be noted: timepoint 72 hour.
As to `Cc1ccc(C)c(-n2cnc(=O)n2CC(=O)c2cc(C(N)=O)co2)c1`, the “% Inhibition” value is on record as -5% and the Z score is recorded as 0.98.
The matching figures for `CNS(=O)(=O)c1ccc(OC)cc1`: -10% and 0.81.
For `Cc1cc(C#N)nc(N2CC[C@H](N(C)C)C2)n1` the same measures were 1% and -0.11.
Regarding `c1cc(CNC2C[C@@H]3CCCC[C@H]23)c(OCC2CCOC2)cn1` (some centres undefined), the “% Inhibition” value stood at 5% and the Z score was -0.48.
On to `c1ccc2c(c1)CCN(c1ncnc3sccc13)C2`, for which the “% Inhibition” value was -7% and the Z score is listed as 1.09.
The matching figures for `Cc1nc(CN(C)C(=O)NC2CCCCC2)no1`: -3% and 0.4.
For `COCc1nc([C@H]2CCOC2)cc(N2CCC(C(=O)N3CCCC3)CC2)n1` the same measures were -2% and 0.26.
The matching figures for `CN(Cc1ccc(F)cn1)c1ccn(C)n1`: 37% and -5.3.
Consider `Cc1nc([C@H]2CCCN2S(=O)(=O)c2cccc3c2OCC3)cs1`, for which the “% Inhibition” value is reported as -6% and the Z score is on record as 0.81.
For `COc1ncc(C(=O)N2CC[C@](C)(O)[C@H](O)C2)nc1OC` the same measures were 4% and -0.68.
Regarding `COc1ccc([C@H]2OCC[C@@H]2NC(=O)c2cc(C)nc3c2cnn3C)cn1`, the “% Inhibition” value is recorded as -12% and the Z score is given as 1.04.
For `CC(C)(CC(=O)O)CC(=O)N1CCC[C@H](c2ccc(F)cc2)CC1` the same measures were 0% and 0.04.
The matching figures for `CC(C)N1CCC(N2C(=O)[C@@H]3CC[C@@H](c4ccccc4)N3C2=O)CC1`: 4% and -0.66.
The matching figures for `CC(=Cc1ccccc1)CN1CCC2CCC(C1)S2(=O)=O` (centres undefined): -3% and 0.4.
`Cc1cccc(Cl)c1-c1ccc(C(=O)N(C)CCC2(O)CCCC2)cc1`: the “% Inhibition” value is recorded as -6% and the Z score came out at 0.83.
The matching figures for `COc1cccc(Cn2nc(C)c(NC(=O)c3cc(C)nc4c3cnn4C)c2C)c1`: 32% and -3.61.
Turning to `NCCOc1cccc(CC(=O)N2C[C@H]3CCC[C@@H](C3)C2)c1`, the “% Inhibition” value was -9% and the Z score is 0.9.
The matching figures for `C[C@@H](CO)NC(=O)Cn1c(-c2ccccc2)nn(-c2ccccc2Cl)c1=O`: -12% and 1.43.
As to `NC(=O)Cc1nc(-c2ccc(O)c(F)c2)n(CCO)n1`, the “% Inhibition” value is reported as -7% and the Z score turned out to be 1.35.
For `O=c1c2ccccc2nc(-c2ccc(Cl)cc2Cl)n1-c1ccc2ccccc2c1` the same measures were -8% and 0.91.
For `C[C@H](Nc1ncnc2c1CCC2)c1cnccn1` the same measures were -11% and 1.7.
The matching figures for `Cn1c(CN(Cc2ccco2)C[C@H]2CCCO2)cc(=O)n(C)c1=O`: -8% and 1.51.
As for `O=C(NC[C@H]1CCCS1(=O)=O)Nc1nccs1`, the “% Inhibition” value was -14% and the Z score is listed as 2.1.
For `Nc1nc(C(F)(F)C(F)(F)C(F)(F)F)n[nH]1` the same measures were -1% and 0.1.
For `O=C(c1cn2ccnc2s1)N1CCCC12CCCCC2` the same measures were 4% and -0.42.
Consider `Nc1nc2ncc(Br)cc2o1`, for which the “% Inhibition” value is given as -2% and the Z score turned out to be 0.33.
For `CCc1ccc(S(=O)(=O)N[C@H]2CC(=O)N(C)C2=O)s1` the same measures were -6% and 0.67.
The matching figures for `CCc1nc(-c2c(C)cc(C)nc2NC(=O)c2ccc(C)c(F)c2)no1`: -2% and 0.31.
The matching figures for `CCOc1cccc(NC(=O)C(C)(C)C)c1`: -10% and 1.72.
For the compound `COCCN1CCN(C(=O)NCc2cccs2)[C@H]2CS(=O)(=O)C[C@H]21`, the “% Inhibition” value was -4% and the Z score is 0.79.
`N#Cc1cc(C(=O)N[C@H]2CCCOCC2)ccn1`: the “% Inhibition” value is 36% and the Z score is -5.27.
For the compound `CCN(CC(=O)N1CCC(Cn2nc(C)cc2C)CC1)C1CC1`, the “% Inhibition” value was -16% and the Z score turned out to be 2.46.
Regarding `CCCc1ccc(S(=O)(=O)N2CCN([C@H](C(=O)O)C3CC3)CC2)cc1`, the “% Inhibition” value came out at 2% and the Z score was -0.52.
Turning to `Cc1ccc(CN[C@H]2CCCc3nc(-c4cccnc4)ncc32)o1`, the “% Inhibition” value is recorded as -16% and the Z score was determined as 1.45.
For `CN(C)[C@@H]1C[C@@H](C(=O)O)N(C(=O)CC(c2ccccc2)c2ccccc2)C1` the same measures were -2% and 0.17.
For `COCc1nc2c(s1)CN(C(=O)c1ccccc1C)CC2` the same measures were 1% and -0.16.
For `Cc1ccccc1N(CC1CC1)C(=O)Nc1cccnc1` the same measures were -6% and 0.56.
On to `COc1cccc2cc(C(=O)N3CCN(C/C=C/c4ccccc4)CC3)oc12`, for which the “% Inhibition” value stood at 26% and the Z score was -2.96.
For `Cc1ccc(S(=O)(=O)N2CCCCC2C)cc1C(=O)N1CC2C(C1)C2(C)C` (centres undefined) the same measures were -35% and 4.11.
As for `CCS(=O)(=O)N1CC(=O)N(c2ccc(F)cc2)[C@](C)(C(=O)NCc2ccc(F)cc2)C1`, the “% Inhibition” value is on record as -3% and the Z score came to 0.33.
The matching figures for `CCCCc1nc(CN2CCN(c3ccc(O)cc3)CC2)no1`: -5% and 0.63.
The matching figures for `CCc1cnc(NCCCn2ccnc2CC)nc1`: -13% and 1.93.
As for `Cc1cccc(C[C@H](C)NC(=O)c2cc(=O)cc(C)n2C)n1`, the “% Inhibition” value was -4% and the Z score was found to be 0.81.
As to `Cc1cc(CS(=O)(=O)NCCOc2ccc(C(C)(C)C)cc2)on1`, the “% Inhibition” value is reported as -7% and the Z score is reported as 0.98.
The matching figures for `CC(C)(NC(=O)CCc1ccccc1)C(=O)O`: -2% and 0.35.
The matching figures for `Cc1cncc(-c2cc3c(cc2OC(C)(C)C(=O)O)OCC3)c1`: -11% and 2.03.
As to `CCOC(=O)c1cnn(-c2cccc(C)c2C)c1CN1CCC(C(N)=O)CC1`, the “% Inhibition” value is -8% and the Z score stood at 1.03.
The matching figures for `COc1ccc(Cc2nc(C)n(CCO)n2)cc1OC`: -2% and 0.37.
For `CC(=Cc1ccccc1)CNCC(=O)N1Cc2ccccc2C1` the same measures were -11% and 1.23.
With `NC(=NC1CC1)NCc1cccc(Cl)c1`, the “% Inhibition” value is -7% and the Z score amounted to 0.99.
The matching figures for `C[C@H]1CN(C(=O)COCc2cc[nH]c(=O)c2)CCN1c1ccccc1`: 6% and -1.19.
On to `O=C(Nc1nnc(C2CC2)s1)c1cc(O)nc2ccccc12`, for which the “% Inhibition” value was found to be 1% and the Z score is reported as -0.14.
Regarding `COc1ccc(CCNC(=O)Cn2nnc(Cc3ccc(C)cc3)n2)cc1`, the “% Inhibition” value is -2% and the Z score is given as 0.32.
The matching figures for `CCn1nc(C)cc1C(=O)Nc1ccc(C)c(O[C@H]2CCOC2)c1`: -12% and 1.09.
The matching figures for `CC(C)(C)OC(=O)N1CCCC1C1CCCCN1S(=O)(=O)c1cccc(S(N)(=O)=O)c1` (centres undefined): -9% and 1.63.
For `CC1OCCC1C(=O)N1CCCN(C(=O)CCc2ccccc2)CC1` (centres undefined) the same measures were -19% and 2.
With `Cc1ccc(C(=O)N2CCC[C@H]2c2ccncc2)s1`, the “% Inhibition” value is -13% and the Z score is listed as 1.95.
For the compound `O=C(Nc1ccc(N2CCCC2=O)cc1)[C@@H]1Cc2ccccc2O1`, the “% Inhibition” value was -9% and the Z score is listed as 1.2.
For `CC1CC(NS(=O)(=O)CCC2CCCO2)CCO1` (centres undefined) the same measures were -3% and 0.38.
On to `Cc1cc(C)c2c(N)c(S(=O)(=O)c3ccc(C(C)(C)C)cc3)sc2n1`, for which the “% Inhibition” value is -13% and the Z score came out at 2.14.
For `c1cc2c(cc1Oc1nnnn1[C@H]1CO[C@H]3[C@@H]1OC[C@@H]3NCC1CCCCC1)OCO2` the same measures were 9% and -1.07.
For `CC[C@@H](c1ccc(OC)cc1)N(CC)C(=O)CCN1CCCCC1=O` the same measures were -1% and 0.11.
The matching figures for `COc1cccc(Oc2nc(N3CCC(C)CC3)nc3c2CN(C(=O)Nc2ccc(C)cc2)CC3)c1`: 10% and -1.41.
With `COc1ccc(CN(C)Cc2nccs2)cn1`, the “% Inhibition” value is 2% and the Z score is given as -0.31.
For `COCC1(NC(=O)c2nccnc2C(=O)N2CCCCC2)CCCC1` the same measures were -5% and 0.95.
With `C[C@@H](CN1CCCCCC1)NCc1ccc2nonc2c1`, the “% Inhibition” value is on record as -15% and the Z score came out at 1.43.
The matching figures for `Cc1nc(NC(=O)Cc2cccs2)sc1C`: -5% and 0.71.
For `Cc1ccc(Cc2nsc(N3CCC(CNC(=O)Nc4ccc(Cl)c(Cl)c4)CC3)n2)cc1`, the “% Inhibition” value is -5% and the Z score is 0.53.
For `CN(C(=O)C1(O)CCC1)c1ccc(F)cc1` the same measures were -8% and 1.38.
As for `CC(C)c1nccn1-c1nccc(N(C)C)n1`, the “% Inhibition” value turned out to be 1% and the Z score was -0.09.
The matching figures for `CC(C)(C)c1nccc(Oc2ccc(-n3cncn3)cc2)n1`: -2% and 0.21.
The matching figures for `CCCc1nc(-c2cc3cc(C)ccc3nc2NCc2ccc(C)o2)no1`: -9% and 1.85.
Take `c1ccn2cc(CN3CCCC[C@@H]3Cn3cncn3)nc2c1`: the “% Inhibition” value turned out to be 10% and the Z score is recorded as -1.3.
For `Cc1ccoc1C(=O)NC1CCN(C(=O)[C@H](C)N2CCOCC2)CC1` the same measures were 0% and -0.05.
For `O=C(c1ccc[nH]1)N1CCCN(C(=O)C2C3CCCCC32)CC1` (centres undefined) the same measures were -8% and 0.78.
For `CCNC(=O)COc1ccc2c(c1)[C@H](c1ccc(C)cc1)N(C(=O)C1CCCC1)CC2` the same measures were -9% and 0.98.
As to `Cc1ccc(C2=C[C@@H](c3c(F)cccc3Cl)n3nc(NC(=O)c4ccccc4)nc3N2)cc1`, the “% Inhibition” value was found to be 18% and the Z score is reported as -3.01.
For `COc1cccc(C2C(c3ccccc3)CCN2C(=O)c2ocnc2C(F)F)c1` (centres undefined) the same measures were -9% and 1.81.
The matching figures for `C[C@@H]1CN(c2ncc(F)cn2)C[C@H](C)N1CCO`: -11% and 1.54.
On to `CC(C)(C)OCc1cc(C(=O)N2CC(=O)Nc3c(F)cccc32)no1`, for which the “% Inhibition” value amounted to 3% and the Z score is listed as -0.5.
The matching figures for `COc1ccc(S(=O)(=O)Nc2nc(C)c(C(=O)NCc3cccs3)s2)cc1`: 2% and -0.25.
For `NC(=O)c1c(F)cccc1-c1cccc(-c2cc[nH]n2)c1` the same measures were 2% and -0.31.
The matching figures for `CCc1cc(C(=O)N(CCc2ccccc2)CC2CCN(C)CC2)cc(=O)[nH]1`: -1% and 0.2.
In the case of `c1coc(C(CNC2CC3CCC2O3)N2CCCC2)c1` (centres undefined), the “% Inhibition” value is 11% and the Z score is -1.41.
The matching figures for `Cc1ccc(-c2ncccc2NC(=O)N2CC[S@@+]([O-])C(C)(C)CC2)s1`: -1% and 0.12.
For `O=C(Nc1ccccc1)Nn1cnc2ccccc2c1=O` the same measures were -10% and 1.49.
For `O=C(Cc1cccs1)N1CCC(c2c[nH]c3ccccc23)CC1` the same measures were -7% and 1.13.

One may read the % Inhibition as the change of the read-out against control, counted positive when it falls.
